Test results from PubChem BioAssay AID1963576 (National Center for Advancing Translational Sciences (NCATS), 2024).
About 60 (0.1%) of roughly 46,000 compounds were called active. Not shown: some 3% with an inconclusive outcome. Calls come from the whole dose curve; as a rule, active = well fitted inhibition curve with a large enough effect; inconclusive = small, poorly fitted or top-dose-only effect; inactive = no such curve, though single readings can be large or run the other way. The list shows a part of the results.

Assay: Primary qHTS assay for Inhibitors of ovarian cancer metastasis using an organotypic tumor microenvironment (TME) model.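 For activity change, negative = inhibition: plate controls were DMSO wells for no effect and tomatine positive control wells for full effect.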 Note: nearly all actives have a fitted effect of over 65% in size.
Details: SKOV3ip1-GFP adhesion/invasion on 3D omental model, fluorescence; series mostly up to 45.8 µM; activity change, negative = inhibition: at the top concentration
Procedure, shortened: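 Primary human omental fibroblast/mesothelial 3D culture pre-formed 48 h. SKOV3ip1-GFP cells added with compounds (0.36-46 umol/L), incubated 2 h RT/16 h 37 C, fixed; GFP cells quantified at 488/509 nm.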

Activity change, negative = inhibition, inactive:
COc1ccc(CCn2c(=O)c3cccnc3n(CC(=O)Nc3cccc(C)c3)c2=O)cc1OC 2.55%
Cc1cc2nc(-c3ccc(Br)cc3)cc(C(F)(F)F)n2n1 6.03%
Cn1cc(-c2cc3n(n2)CCC(=O)N3CCCC(=O)Nc2ccc(F)cc2F)c2ccccc21 0.658%
CC(=O)N(Cc1cccnc1)c1nc2c(C)cccc2s1 6.74%
Cc1ccc2nc(NS(=O)(=O)c3ccc(Cl)cc3)c(Nc3ccc(C(=O)O)cc3)nc2c1 -0.138%
Cc1nnc2c(N3CCN(c4ccccc4)CC3)nc3ccc(C(=O)c4ccccc4)cc3n12 6.8%
CCc1ccc(N2CCn3c2nc2c3c(=O)n(Cc3c(F)cccc3Cl)c(=O)n2C)cc1 -7.76%
CCc1ccc(-c2cn3c(n2)sc2cc(C(=O)NCC(C)c4ccccc4)ccc23)cc1 (configuration not stated) -8.64%
Cn1c(=O)c2sccc2n2c(CCC(=O)N3CCN(c4cccc(Cl)c4)CC3)nnc12 7.42%
CCOc1ccc(/C=C(\C#N)C(=O)Nc2sc3c(c2C(=O)OC)C(C(=O)OC)CC3)cc1OC (configuration not stated) -3.45%
Cc1c(CNCCc2ccc(S(N)(=O)=O)cc2)c(C(=O)O)c(C)n1Cc1ccc(Cl)cc1 10%
CN(C(=O)CSc1nc2ccccc2n1CC(=O)N(C)c1ccc(F)cc1)c1ccccc1 7.35%
CCOc1ccc(Nc2oc(-c3ccc(COc4ccccc4C)o3)nc2C#N)cc1 0.648%
Cc1nc(-c2cccc(F)c2)sc1CCNC(=O)c1ccc(F)c(F)c1 -13.4%
CCN(c1ccccc1)S(=O)(=O)c1ccc(F)c(C(=O)Nc2ccc(C)cc2)c1 -1.22%
COc1ccc(CNCCSc2nnnn2-c2ccccc2)c(OC)c1 -12.7%
COc1ccc(N2CCN(C(=O)C3CCN(S(=O)(=O)Cc4ccccc4)CC3)CC2)cc1 3.93%
Cc1ccc(C)c(S(=O)(=O)NCC(c2ccco2)S(=O)(=O)c2ccc(F)cc2)c1 (configuration not stated) 0.579%
Cc1cccc(N2CCN(c3nc4ccccc4c(=O)n3-c3ccc(Cl)cc3)CC2)c1C -0.716%
CCOc1ccc(C(=O)Nc2ccc(S(=O)(=O)N3CCCCC3c3cccnc3)cc2)cc1 (configuration not stated) -15.3%
COc1ccccc1-c1ccnc2[nH]n(-c3ccccc3)c(=O)c12 20.2%
CCOc1ccc(C2C(=O)N(C3CCCCCC3)CC(=O)N2CCc2ccccc2)cc1OC (configuration not stated) 4.92%
CCOc1ccc(CCNC(=O)c2cnc3sc(N4CCOCC4)nn3c2=O)cc1 7.71%
CCC1CCCCN1C(=O)c1nn(-c2ccc(C)cc2)c(=O)c2c1c1ccccc1n2C (configuration not stated) -0.955%
O=C(Nc1c(-c2ccccc2)nc2ccccn12)c1ccc(Br)cc1 -5.85%
O=C(NCc1cccs1)C1CCN(C(=O)N2CCOc3ccccc32)CC1 -12.9%
O=C(Nc1ccc(F)cc1F)c1c2c(nc3ccccc13)C(=O)N(C1CCCCC1)C2 8.79%
Cc1noc(C)c1S(=O)(=O)N(CC(=O)NCc1ccccc1Cl)c1ccc(C(C)C)cc1 9.75%
Cc1ccc(N2CCN(C(=O)c3ccc4c(Cl)c5c(nc4c3)CCCC5)CC2)c(C)c1 79.7%
COc1ccc(C2C(=O)N(C3CCCCC3)CC(=O)N2Cc2ccccc2Cl)cc1OC (configuration not stated) 6.21%
COc1ccc(-c2nn(CC(=O)Nc3ccccc3F)c3c2cnc2ccc(F)cc23)cc1 2.79%
Cc1ccc(N(CC(=O)N2CCN(c3ccc(Cl)cc3)CC2)S(=O)(=O)c2c(C)noc2C)cc1 -11.3%
CCOC(=O)c1cc(OC(=O)c2ccc(Cl)cc2)n(-c2ccccc2)n1 9.46%
Cc1ccc(C)c(N2CCN(CCCNC(=O)Cn3ncc4c([nH]c5ccccc54)c3=O)CC2)c1 1.33%
COc1ccc(CNC(=O)Cn2ncn3nc(-c4cccs4)cc3c2=O)cc1 -14.4%
CCOC(=O)c1ccc(NC(=O)CCS(=O)(=O)c2ccc3c(c2)oc(=O)n3C)cc1 1.24%
CC(=O)NCCC(=O)N[C@@H](CCC(N)=O)C(=O)N[C@@H](CO)C(=O)N[C@@H](CCC(N)=O)C(=O)N[C@@H](CCC(N)=O)C(=O)N[C@H](C(=O)N[C@@H](Cc1ccccc1)C(=O)N[C@]1(C)CCCCCCC=CCCC[C@@](C)(C(=O)N[C@@H](CCC(N)=O)C(=O)N[C@@H](CC(N)=O)C(N)=O)NC(=O)[C@H](CC(C)C)NC(=O)[C@H](CC(C)C)NC(=O)[C@@H](CCCNC(=N)N)NC(=O)[C@H](Cc2c[nH]c3ccccc23)NC(=O)[C@H](CC(C)C)NC(=O)[C@H](CC(N)=O)NC1=O)[C@H](C)O -5.02%
CCCCCn1c(=O)[nH]c2cc(C(=O)NCc3ccc(OC)cc3)ccc2c1=O -6.15%
Nc1ncnc2ccccc12 1.74%
Cc1ccc(Cl)cc1N1CCN(S(=O)(=O)c2ccc3[nH]c4c(c3c2)CCCC4)CC1 0.646%
CCc1ccc(NC(=O)C(CC)n2nnc(C(=O)OC)c2C(=O)OC)cc1 (configuration not stated) 7.35%
CCOc1ccc(-n2nc3cc(C)c(NC(=O)CC)cc3n2)cc1 6.59%
CCCNc1nc(NCc2ccccc2OC)c2cnn(C)c2n1 -11.5%
COc1ccc(C2NC(=O)c3c(sc4c3CCN(C)C4)N2)cc1O (configuration not stated) 0.414%
Cc1cccc(CN2C(=O)CC(c3ccc(Cl)cc3)c3c(C)nn(-c4nc(C)cc(C)n4)c32)c1 (configuration not stated) 0.328%
CCCCN(CCCC)CCNC(=O)CN1C(=O)CSc2ccc(S(=O)(=O)N3CCCCC3)cc21 6.6%
COc1ccccc1N(CC(=O)Nc1ccccc1F)S(C)(=O)=O 7.8%
CCOc1ccccc1CNC(=O)c1cnc2sc(N3CCCC3)nn2c1=O 7.02%
CCC(CO)Nc1ncnc2c1cnn2-c1ccc(C)cc1 (configuration not stated) -0.0887%
Cc1ccc(NC(=O)N2CCN(c3nnc(C)c4c(C)n(-c5ccccc5)nc34)CC2)cc1Cl 1.61%
CCCN1C(=O)c2ccccc2CC1(C)C(=O)NC1CCCCC1 (configuration not stated) 10.1%
Cc1ccc(Cl)cc1Nc1nn2c(=O)c3ccc(C(=O)NCc4cccs4)cc3nc2s1 -6.52%
CCOCCc1nn2c(=O)cc(COC(=O)c3cccs3)nc2s1 -8.7%
CCOc1ccc(-c2cc(NC(=O)c3ccc(C)cc3)c(C(=O)OC)s2)cc1 -2.05%
CCCC(=O)C1=C(c2ccc(C)c(C)c2)N(C(=O)CCC)n2c(CC)nnc2S1 -10.1%
Cn1cnc2c1c(=O)[nH]c(=O)n2C -5.16%
CC(C)c1ccc(NS(=O)(=O)c2ccc3[nH]cc(C(=O)N4CCCC4)c(=O)c3c2)cc1 -1.64%
COc1ccc(OC)c(CNC(=O)CCCn2nc(C)c3c(C)n(-c4ccc(C)cc4)nc3c2=O)c1 -0.563%
COc1cccc(CNC(=O)Cc2c(C)c3c(cc(C)c4c(C)coc43)oc2=O)c1 0.689%
CC1=NN(c2ccccc2)C(=O)C1 -18%
Cc1nn(-c2nc(-c3ccc(F)cc3)cc(C(F)(F)F)n2)c(C)c1Cl -9.33%
CCc1ccc(CNC(=O)c2ccc3nc(C(C)C)oc3c2)cc1 -7.83%
CCc1ccc(NC(=O)C(=O)NCC(c2cccnc2)N2CCN(C)CC2)cc1 (configuration not stated) -3.93%

outcome, inactive:
Cc1cc(C)cc(-n2ccnc2SCC(=O)Nc2ccc3c(c2)OCO3)c1
Cc1nc2c(C(=O)NCCc3ccc(Cl)cc3)c[nH]n2c(=O)c1Cc1ccccc1F
CCc1ccc(NS(=O)(=O)c2ccc(C(=O)N(C)C)s2)cc1
O=C(C1CC1)N1CCc2cc(Br)cc(S(=O)(=O)N3CCN(c4ccccc4)CC3)c21
CCCCC(=O)Nc1nnc(S(=O)(=O)N(CC)c2cc(C)cc(C)c2)s1
Cc1ccc(CNC(=O)CN2C(=O)C3(SCC(=O)N3c3cc(C)cc(C)c3)c3ccccc32)cc1 (configuration not stated)
O=C(CSc1nccn1Cc1ccc(F)cc1)Nc1ccc2c(c1)OCO2
CCc1cccc(C)c1NC(=O)Cn1c(=O)cc(C(F)(F)F)c2c(C)nn(C)c21
COc1ccc(Cn2ccnc2SCC(=O)NCc2ccccc2)cc1
COc1ccc(N2CCN(S(=O)(=O)CCNC(=O)c3ccc(C(F)(F)F)cc3)CC2)cc1
Cc1ccc(-c2nc(S(=O)(=O)c3ccc(C)cc3)c(N3CCN(c4ccccc4)CC3)o2)cc1
COc1ccc(CN2COc3ccc4c(-c5ccc(OC)cc5)cc(=O)oc4c3C2)cc1
Cc1cccc(N2CCN(C(=O)C3CCN(S(=O)(=O)c4cn(C)cn4)CC3)CC2)c1C
COc1ccccc1NC(=O)CN1C(=O)c2cccc3cccc1c23
CCN(CCCNC(=O)c1cc2c(=O)[nH]c3ccc(C)cc3c2s1)c1ccc(C)cc1
CCOCCCn1c(SCC(=O)Nc2cccc(OC)c2)nc2ccccc2c1=O
COc1ccccc1NC(=O)C1CCN(S(=O)(=O)c2ccc3c(c2)oc(=O)n3C)CC1
CCN(c1ccc(Cl)cc1)S(=O)(=O)c1nnc(NC(=O)C2CCCCC2)s1
Cc1ccc2nc(N(Cc3cccnc3)C(=O)c3ccc4c(c3)OCCO4)sc2c1
O=C(NCc1ccc2c(c1)OCO2)c1ccc2c(c1)N(Cc1ccc(F)cc1)C(=O)c1ccccc1S2=O (configuration not stated)
COc1ccc2c(c1)-c1nc(NC(=O)c3ccc(C)cc3)sc1CC2
Cc1cc(C)cc(-n2c(SCC(=O)NCC3CCCO3)nc3c([nH]c4ccccc43)c2=O)c1 (configuration not stated)
COc1ccc(-c2noc(-c3ccc(NCCc4ccccc4)c([N+](=O)[O-])c3)n2)cc1OC
CC1CCN(C(=O)c2cc(-c3cccc(Cl)c3)on2)CC1
CCn1ccc2cc(S(=O)(=O)N3CCCN(C(=O)Nc4cc(Cl)ccc4C)CC3)ccc21
O=C(Cn1ncc2c3ccccc3n(Cc3ccccc3)c2c1=O)Nc1ccccc1C(F)(F)F
CCOc1ccc(NC(=O)Nc2ccc3snnc3c2)cc1
CC(=O)N1CCC2(CC1)OC(=O)C(C)=C2C(=O)NCc1ccc(Cl)cc1
Cn1ccc2c(OCC(=O)NCc3ccccc3Cl)cccc2c1=O
